Experiment [1] relates to Epidermal growth factor receptor (Homo sapiens), P00533 [T790M]. To be noted: at 1 µM.
Experiment [2] deals with Epidermal growth factor receptor (Homo sapiens), P00533 [L858R,T790M]. The settings on record: at 0.1 µM.
For experiment [3] the test system is unchanged. The settings on record: at 1 µM.
The target of experiment [4] is Ephrin type-A receptor 2 (Homo sapiens) (UniProt P29317). The settings on record: at 0.1 µM.
For experiment [5] the target is unchanged. The settings on record: at 1 µM.
Experiment [6] addresses T1, Ephrin type-A receptor 3 (Homo sapiens) (UniProt P29320).
T1 sequence (whole entry): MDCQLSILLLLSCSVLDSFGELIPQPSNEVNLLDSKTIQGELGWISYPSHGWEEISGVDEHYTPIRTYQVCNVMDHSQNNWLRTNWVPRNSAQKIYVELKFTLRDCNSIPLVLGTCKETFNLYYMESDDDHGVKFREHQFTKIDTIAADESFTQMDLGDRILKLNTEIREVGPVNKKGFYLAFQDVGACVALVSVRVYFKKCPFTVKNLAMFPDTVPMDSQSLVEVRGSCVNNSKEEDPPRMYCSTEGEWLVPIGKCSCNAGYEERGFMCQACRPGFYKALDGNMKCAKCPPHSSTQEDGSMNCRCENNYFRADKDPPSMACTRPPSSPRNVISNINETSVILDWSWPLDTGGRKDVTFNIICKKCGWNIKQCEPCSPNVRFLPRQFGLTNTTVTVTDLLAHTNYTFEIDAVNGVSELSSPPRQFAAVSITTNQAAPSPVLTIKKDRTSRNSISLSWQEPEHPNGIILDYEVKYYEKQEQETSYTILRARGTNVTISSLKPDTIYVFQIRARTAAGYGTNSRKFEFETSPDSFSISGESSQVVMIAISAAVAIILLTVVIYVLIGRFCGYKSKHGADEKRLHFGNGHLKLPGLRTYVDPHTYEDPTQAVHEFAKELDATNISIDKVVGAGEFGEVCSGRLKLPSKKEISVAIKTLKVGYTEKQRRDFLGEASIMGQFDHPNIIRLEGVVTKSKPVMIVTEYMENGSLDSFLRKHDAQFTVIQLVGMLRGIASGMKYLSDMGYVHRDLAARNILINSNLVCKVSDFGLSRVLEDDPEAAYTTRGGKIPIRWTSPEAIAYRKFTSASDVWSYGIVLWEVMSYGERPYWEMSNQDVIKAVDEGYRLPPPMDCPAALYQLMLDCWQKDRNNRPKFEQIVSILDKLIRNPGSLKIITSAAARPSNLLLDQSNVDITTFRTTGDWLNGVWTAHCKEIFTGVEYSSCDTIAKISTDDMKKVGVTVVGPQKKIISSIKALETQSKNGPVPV
To be noted: at 0.1 µM.

Experiment [7] addresses T1, Ephrin type-A receptor 3 (Homo sapiens). To be noted: at 1 µM.
Experiment [8] concerns the target Ephrin type-A receptor 4 (Homo sapiens) (UniProt P54764). To be noted: at 0.1 µM.
Chain of UniProt P54764 (P54764 whole entry): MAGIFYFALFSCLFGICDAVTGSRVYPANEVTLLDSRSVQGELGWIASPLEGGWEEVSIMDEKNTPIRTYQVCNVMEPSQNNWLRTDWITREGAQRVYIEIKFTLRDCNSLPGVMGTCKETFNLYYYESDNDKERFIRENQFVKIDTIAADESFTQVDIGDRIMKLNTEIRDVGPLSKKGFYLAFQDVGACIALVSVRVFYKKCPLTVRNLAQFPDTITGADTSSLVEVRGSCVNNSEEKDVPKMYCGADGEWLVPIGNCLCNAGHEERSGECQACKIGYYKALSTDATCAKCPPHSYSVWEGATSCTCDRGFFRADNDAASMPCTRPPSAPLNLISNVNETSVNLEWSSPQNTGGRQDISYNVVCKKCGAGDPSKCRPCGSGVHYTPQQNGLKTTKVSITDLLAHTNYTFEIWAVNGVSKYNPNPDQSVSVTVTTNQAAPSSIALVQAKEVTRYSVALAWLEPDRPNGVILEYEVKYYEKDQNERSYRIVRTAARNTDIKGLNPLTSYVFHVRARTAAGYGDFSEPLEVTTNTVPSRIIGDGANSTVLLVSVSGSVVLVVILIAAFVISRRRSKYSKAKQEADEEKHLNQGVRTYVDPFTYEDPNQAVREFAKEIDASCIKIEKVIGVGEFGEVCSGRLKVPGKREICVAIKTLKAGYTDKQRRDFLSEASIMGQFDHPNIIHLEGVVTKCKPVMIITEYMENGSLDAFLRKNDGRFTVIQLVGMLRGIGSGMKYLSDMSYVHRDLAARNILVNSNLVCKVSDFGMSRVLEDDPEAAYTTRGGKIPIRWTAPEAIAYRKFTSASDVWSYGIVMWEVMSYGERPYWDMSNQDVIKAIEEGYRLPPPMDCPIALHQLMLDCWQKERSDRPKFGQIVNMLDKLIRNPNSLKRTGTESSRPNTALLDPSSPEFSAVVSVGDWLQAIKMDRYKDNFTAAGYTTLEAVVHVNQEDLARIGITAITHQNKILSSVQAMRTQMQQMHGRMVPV
The target is the same in experiment [9]. The settings on record: at 1 µM.
The target of experiment [10] is T2, Ephrin type-B receptor 2 (Homo sapiens) (UniProt P29323).
T2 sequence (whole entry): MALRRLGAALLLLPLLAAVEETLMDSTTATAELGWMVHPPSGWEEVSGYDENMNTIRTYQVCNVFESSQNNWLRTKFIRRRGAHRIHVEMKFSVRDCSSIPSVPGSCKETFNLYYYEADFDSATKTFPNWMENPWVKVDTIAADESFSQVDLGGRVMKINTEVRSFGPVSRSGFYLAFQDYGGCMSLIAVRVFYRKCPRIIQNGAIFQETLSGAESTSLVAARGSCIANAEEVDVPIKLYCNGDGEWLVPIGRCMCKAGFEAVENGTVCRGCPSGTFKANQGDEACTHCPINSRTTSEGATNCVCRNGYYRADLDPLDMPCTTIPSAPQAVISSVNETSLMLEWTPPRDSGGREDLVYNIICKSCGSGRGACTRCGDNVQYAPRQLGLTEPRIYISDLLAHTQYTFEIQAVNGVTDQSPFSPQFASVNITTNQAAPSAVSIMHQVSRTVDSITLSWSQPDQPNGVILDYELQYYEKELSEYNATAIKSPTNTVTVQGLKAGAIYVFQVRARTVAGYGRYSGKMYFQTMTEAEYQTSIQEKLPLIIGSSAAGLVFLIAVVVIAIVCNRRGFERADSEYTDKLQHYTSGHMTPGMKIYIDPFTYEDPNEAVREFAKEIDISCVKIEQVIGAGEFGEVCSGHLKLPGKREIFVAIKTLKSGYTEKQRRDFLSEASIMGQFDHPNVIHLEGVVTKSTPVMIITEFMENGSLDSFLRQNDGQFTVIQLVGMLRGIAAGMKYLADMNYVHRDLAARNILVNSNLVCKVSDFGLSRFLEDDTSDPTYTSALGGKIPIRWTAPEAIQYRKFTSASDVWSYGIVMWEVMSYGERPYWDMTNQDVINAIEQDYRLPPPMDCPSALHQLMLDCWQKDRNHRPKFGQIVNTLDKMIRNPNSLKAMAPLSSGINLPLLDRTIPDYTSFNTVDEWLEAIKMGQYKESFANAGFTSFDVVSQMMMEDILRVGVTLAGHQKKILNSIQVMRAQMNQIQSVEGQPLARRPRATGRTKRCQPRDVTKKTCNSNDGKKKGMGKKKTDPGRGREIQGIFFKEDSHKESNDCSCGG
The settings on record: at 0.1 µM.

Experiment [11] has as its target T2, Ephrin type-B receptor 2 (Homo sapiens). To be noted: at 1 µM.
Experiment [12] concerns the target T3, Ephrin type-B receptor 3 (Homo sapiens) (UniProt P54753).
T3 sequence (whole entry): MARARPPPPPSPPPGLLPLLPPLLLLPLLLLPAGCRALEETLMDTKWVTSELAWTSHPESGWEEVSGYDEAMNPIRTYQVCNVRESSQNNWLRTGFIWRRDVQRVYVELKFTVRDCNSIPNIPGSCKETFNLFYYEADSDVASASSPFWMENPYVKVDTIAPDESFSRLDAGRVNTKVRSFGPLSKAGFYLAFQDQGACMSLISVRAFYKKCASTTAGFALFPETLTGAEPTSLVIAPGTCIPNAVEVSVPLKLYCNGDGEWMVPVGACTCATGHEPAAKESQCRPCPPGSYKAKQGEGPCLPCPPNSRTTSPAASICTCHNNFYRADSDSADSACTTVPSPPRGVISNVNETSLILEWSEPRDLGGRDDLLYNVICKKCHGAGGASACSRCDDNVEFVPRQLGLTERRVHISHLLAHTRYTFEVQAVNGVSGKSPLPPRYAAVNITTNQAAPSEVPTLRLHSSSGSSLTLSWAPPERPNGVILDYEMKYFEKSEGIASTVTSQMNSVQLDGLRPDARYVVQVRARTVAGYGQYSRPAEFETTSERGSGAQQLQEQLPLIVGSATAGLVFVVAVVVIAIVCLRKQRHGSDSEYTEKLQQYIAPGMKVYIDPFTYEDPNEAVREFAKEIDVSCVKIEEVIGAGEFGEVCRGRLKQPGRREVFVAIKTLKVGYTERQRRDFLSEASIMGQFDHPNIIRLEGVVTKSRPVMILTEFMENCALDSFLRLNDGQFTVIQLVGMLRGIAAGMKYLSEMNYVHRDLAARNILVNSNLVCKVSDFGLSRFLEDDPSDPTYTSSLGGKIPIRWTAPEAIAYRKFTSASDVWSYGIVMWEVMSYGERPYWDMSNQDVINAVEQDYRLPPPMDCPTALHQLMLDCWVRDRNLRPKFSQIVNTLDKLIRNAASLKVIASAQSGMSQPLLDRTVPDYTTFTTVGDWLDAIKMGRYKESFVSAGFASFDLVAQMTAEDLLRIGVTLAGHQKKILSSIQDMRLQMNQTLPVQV
To be noted: at 0.1 µM.

Experiment [13] has as its target T3, Ephrin type-B receptor 3 (Homo sapiens). The settings on record: at 1 µM.
Experiment [14] deals with T4, Ephrin type-B receptor 4 (Homo sapiens) (UniProt P54760).
T4 sequence (whole entry): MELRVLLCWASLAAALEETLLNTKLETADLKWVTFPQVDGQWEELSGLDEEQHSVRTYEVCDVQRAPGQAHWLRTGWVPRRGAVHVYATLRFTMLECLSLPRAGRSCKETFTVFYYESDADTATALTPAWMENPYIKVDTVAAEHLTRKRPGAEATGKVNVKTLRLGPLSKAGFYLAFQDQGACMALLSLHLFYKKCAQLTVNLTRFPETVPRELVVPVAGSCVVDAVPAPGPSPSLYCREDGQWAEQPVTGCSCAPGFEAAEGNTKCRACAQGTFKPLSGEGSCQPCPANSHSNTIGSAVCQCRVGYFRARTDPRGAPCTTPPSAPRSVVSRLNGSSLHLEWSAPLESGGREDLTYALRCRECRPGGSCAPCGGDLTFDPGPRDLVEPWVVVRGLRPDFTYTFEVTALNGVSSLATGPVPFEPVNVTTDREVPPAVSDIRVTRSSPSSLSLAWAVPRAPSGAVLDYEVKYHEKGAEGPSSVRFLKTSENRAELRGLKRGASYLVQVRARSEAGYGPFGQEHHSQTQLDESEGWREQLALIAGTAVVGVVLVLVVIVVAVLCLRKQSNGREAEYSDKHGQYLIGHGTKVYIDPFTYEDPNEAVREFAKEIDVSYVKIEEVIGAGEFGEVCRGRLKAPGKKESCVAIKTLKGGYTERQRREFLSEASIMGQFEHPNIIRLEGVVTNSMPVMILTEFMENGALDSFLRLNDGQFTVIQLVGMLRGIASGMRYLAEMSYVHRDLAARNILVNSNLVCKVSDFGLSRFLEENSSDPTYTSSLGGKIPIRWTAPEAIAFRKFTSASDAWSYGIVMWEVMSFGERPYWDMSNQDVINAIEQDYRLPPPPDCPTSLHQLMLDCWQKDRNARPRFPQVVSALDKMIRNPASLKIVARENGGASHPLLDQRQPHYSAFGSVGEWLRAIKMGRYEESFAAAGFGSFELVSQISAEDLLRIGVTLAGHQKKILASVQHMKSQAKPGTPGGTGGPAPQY
To be noted: at 0.1 µM.

In experiment [15] the target is T4, Ephrin type-B receptor 4 (Homo sapiens). The settings on record: at 1 µM.
The target in experiment [16] is Receptor tyrosine-protein kinase erbB-2 (Homo sapiens) (UniProt P04626). The settings on record: at 0.1 µM.
Chain of UniProt P04626 (P04626 whole entry): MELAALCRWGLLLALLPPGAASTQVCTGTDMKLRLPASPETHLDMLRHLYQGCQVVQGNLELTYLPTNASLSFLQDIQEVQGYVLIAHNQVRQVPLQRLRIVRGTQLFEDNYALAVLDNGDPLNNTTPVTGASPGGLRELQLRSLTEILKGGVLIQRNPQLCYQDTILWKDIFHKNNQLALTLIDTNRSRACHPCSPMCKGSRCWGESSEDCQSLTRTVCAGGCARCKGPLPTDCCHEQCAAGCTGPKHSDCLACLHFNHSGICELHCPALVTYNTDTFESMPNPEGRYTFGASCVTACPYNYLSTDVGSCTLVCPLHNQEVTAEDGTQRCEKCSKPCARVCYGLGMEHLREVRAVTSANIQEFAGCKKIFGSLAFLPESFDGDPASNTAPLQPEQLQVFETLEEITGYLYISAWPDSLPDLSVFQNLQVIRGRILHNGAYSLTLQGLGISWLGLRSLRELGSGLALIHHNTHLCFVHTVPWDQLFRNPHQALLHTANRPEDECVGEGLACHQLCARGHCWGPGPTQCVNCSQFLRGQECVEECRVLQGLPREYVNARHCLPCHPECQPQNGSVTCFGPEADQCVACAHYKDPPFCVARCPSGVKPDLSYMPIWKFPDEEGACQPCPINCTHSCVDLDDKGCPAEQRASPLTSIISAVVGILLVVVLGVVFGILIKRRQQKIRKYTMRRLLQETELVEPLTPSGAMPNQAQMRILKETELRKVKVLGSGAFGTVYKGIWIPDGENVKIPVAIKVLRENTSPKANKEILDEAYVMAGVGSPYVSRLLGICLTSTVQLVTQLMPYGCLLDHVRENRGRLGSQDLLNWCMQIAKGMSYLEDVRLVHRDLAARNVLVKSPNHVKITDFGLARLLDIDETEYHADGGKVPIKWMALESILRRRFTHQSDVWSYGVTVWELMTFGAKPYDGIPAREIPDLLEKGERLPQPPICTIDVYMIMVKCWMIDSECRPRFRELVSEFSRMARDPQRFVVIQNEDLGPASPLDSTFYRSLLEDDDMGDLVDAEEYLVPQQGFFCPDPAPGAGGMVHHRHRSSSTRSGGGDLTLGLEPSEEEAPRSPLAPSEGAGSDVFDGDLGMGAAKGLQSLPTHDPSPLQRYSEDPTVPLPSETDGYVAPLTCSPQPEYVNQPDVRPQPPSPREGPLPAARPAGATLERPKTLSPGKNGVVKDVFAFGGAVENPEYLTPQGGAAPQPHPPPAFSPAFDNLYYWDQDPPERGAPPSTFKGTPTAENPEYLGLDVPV
Experiment [17] has the same target. The settings on record: at 1 µM.
Experiment [18] addresses Receptor tyrosine-protein kinase erbB-4 (Homo sapiens) (UniProt Q15303). To be noted: at 0.1 µM.
Chain of UniProt Q15303 (Q15303 whole entry): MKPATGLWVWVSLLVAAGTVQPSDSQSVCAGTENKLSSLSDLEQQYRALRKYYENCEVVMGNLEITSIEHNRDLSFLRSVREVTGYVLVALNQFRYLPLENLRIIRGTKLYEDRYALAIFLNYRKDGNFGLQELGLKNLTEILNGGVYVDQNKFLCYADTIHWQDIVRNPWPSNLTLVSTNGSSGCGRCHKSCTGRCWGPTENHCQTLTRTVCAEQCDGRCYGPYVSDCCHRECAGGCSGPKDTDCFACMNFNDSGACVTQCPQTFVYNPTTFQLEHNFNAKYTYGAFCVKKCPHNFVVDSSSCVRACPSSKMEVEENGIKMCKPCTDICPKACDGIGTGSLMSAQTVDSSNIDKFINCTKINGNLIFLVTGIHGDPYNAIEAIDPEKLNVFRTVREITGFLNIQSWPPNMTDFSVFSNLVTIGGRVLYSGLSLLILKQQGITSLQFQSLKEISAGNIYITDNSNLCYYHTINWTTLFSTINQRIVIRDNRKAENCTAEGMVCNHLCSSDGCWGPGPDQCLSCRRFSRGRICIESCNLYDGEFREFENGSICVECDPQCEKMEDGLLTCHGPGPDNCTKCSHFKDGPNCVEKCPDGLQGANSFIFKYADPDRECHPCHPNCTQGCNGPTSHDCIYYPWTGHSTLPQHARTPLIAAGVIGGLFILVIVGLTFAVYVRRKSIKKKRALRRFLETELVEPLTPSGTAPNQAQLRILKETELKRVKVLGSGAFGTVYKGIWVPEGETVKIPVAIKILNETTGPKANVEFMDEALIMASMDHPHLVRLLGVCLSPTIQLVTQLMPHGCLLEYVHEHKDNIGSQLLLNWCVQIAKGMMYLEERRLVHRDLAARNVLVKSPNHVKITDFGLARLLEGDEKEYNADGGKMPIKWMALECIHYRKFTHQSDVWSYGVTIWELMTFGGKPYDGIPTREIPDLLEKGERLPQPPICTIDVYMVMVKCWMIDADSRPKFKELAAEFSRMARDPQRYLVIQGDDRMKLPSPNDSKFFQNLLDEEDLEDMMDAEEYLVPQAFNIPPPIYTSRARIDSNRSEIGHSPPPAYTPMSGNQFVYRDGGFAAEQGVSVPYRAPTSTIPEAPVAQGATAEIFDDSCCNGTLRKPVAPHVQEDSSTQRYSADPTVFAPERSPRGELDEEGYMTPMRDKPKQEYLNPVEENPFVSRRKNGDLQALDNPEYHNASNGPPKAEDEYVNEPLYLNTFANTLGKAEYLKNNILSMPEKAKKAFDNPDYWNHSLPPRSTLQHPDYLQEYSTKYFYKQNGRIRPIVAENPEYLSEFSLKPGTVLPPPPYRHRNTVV
The target is the same in experiment [19]. To be noted: at 1 µM.
The target in experiment [20] is Tyrosine-protein kinase Fer (Homo sapiens) (UniProt P16591). The settings on record: at 0.1 µM.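 Note: reported figures are averaged percent inhibition of FER.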

For part of these data: This list holds what a sample rich in strong results left over. The list shows a part of the results, in another mix than the full data.

Chain of UniProt P29317 (P29317 whole entry): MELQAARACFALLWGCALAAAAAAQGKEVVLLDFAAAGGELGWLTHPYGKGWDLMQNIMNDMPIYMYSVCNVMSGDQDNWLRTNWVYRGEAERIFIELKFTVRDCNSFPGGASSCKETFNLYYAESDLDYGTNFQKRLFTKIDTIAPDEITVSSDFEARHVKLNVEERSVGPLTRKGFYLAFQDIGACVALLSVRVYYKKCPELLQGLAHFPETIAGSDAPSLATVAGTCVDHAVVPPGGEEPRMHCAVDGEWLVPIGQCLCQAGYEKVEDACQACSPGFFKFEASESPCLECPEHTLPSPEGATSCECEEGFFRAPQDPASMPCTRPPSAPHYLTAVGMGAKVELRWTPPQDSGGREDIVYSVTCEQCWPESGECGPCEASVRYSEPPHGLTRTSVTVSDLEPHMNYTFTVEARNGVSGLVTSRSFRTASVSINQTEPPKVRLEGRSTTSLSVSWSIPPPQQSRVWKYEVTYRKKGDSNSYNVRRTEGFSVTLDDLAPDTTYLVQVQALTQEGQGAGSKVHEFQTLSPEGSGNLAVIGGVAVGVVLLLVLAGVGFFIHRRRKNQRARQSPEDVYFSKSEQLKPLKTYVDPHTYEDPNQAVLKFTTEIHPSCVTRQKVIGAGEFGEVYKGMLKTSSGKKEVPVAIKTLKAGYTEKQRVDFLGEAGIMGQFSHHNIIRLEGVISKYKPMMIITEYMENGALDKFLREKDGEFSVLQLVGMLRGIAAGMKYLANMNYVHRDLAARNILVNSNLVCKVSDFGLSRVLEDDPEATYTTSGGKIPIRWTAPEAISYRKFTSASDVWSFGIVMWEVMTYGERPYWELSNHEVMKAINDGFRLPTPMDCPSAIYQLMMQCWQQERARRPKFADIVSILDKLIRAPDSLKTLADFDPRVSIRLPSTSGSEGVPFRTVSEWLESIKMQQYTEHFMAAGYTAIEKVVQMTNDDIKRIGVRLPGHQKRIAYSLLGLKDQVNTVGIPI

For `COc1ccccc1C1=C(Nc2ccccc2)C(=O)NC1=O`, the inhibition stood at 2.58% in experiment [1]; 1.03% in experiment [2]; 1.71% in experiment [3]; 1.18% in experiment [4]; 0.6% in [5]; 3.37% in experiment [6]. Further, the inhibition in experiment [7] came to 4.46%; in [8], 8.15%; in experiment [9], 13.4%; in experiment [10], 5.38%; in [11], 12.2%; in experiment [12], 5.54%. The inhibition worked out at 3.76% in experiment [13]; 2.58% in experiment [14]; 2.07% in experiment [15]; 2.04% in experiment [16]; 2.5% in [17]; 7.55% in [18]. For the same molecule, the inhibition in experiment [19] was determined as 10.4%; in experiment [20], 4.62%.
For the molecule `Fc1ccc(-c2ncn(C3CCNCC3)c2-c2ccnc(Oc3cccc(C(F)(F)F)c3)n2)cc1`, the inhibition amounted to 3.29% in [1]; 1.8% in [2]; 2.7% in [3]; 1.29% in [4]; 1.66% in experiment [5]; 5.83% in [6]. Also, the inhibition in experiment [8] turned out to be 8.26%; in [9] it was 12.2%; in experiment [10], 11.9%; in [11], 10.6%; in experiment [12], 2.85%; in [13], 4.25%. Also, the inhibition in [14] came to 0.96%; in experiment [15] it was 3.51%; in experiment [17], 5.77%; in experiment [18] it was 10.8%; in experiment [19], 14.1%; in experiment [20], 3.02%.
In the case of `O=C1NC(=O)C(c2ccccc2)=C1Nc1ccccc1`, the inhibition in [1] was 6.06%; in [2] it was 7.55%; in [3] it was 2.97%; in experiment [4], 1.09%; in [5], 0.95%; in experiment [6], 6.11%. Moreover, the inhibition in experiment [7] came out at 5.22%; in experiment [8] it was 11.1%; in experiment [9] it was 14.8%; in experiment [10], 7.07%; in experiment [11], 11.6%; in experiment [12], 6.33%. The inhibition in [13] is 3.76%; in experiment [14] it was 3.88%; in experiment [15], 3.24%; in experiment [16], 3.99%; in experiment [17] it was 2.79%; in experiment [18], 10.9%. The inhibition amounted to 24% in experiment [19] and 3.66% in experiment [20].
With `Fc1ccc(-c2ncn(C3CCNCC3)c2-c2ccnc(Oc3ccc(Cl)cc3)n2)cc1`, the inhibition in [1] was 0.38%; in experiment [2] it was -1.44%; in experiment [3], 1.67%; in [4], -3.79%; in experiment [5], -2.87%; in [6], -2.51%. In addition, the inhibition in [7] was -1.43%; in experiment [8] it was -0.62%; in experiment [9], 2.11%; in [10], 5.34%; in experiment [11], 3.26%; in [12], 1%. In addition, the inhibition was 2.14% in experiment [13]; -0.37% in experiment [14]; 1.29% in experiment [15]; -0.24% in experiment [16]; 5.43% in [17]; 6.98% in [18]. Moreover, the inhibition in experiment [19] turned out to be 9.2%; in experiment [20], 3.95%.

Values taken from ChEMBL document CHEMBL1961873, “Compounds: GSK PKIS; Assays: Nanosyn kinase panel” (2012).
